Over roughly 33,000 sequences, “E-score (-0.5 to 0.5)” has its median near -0.012; the highest 2% begin near 0.27. This is one part of the list.
Target: T1, Vhr1 (UniProt P40522)
T1 sequence: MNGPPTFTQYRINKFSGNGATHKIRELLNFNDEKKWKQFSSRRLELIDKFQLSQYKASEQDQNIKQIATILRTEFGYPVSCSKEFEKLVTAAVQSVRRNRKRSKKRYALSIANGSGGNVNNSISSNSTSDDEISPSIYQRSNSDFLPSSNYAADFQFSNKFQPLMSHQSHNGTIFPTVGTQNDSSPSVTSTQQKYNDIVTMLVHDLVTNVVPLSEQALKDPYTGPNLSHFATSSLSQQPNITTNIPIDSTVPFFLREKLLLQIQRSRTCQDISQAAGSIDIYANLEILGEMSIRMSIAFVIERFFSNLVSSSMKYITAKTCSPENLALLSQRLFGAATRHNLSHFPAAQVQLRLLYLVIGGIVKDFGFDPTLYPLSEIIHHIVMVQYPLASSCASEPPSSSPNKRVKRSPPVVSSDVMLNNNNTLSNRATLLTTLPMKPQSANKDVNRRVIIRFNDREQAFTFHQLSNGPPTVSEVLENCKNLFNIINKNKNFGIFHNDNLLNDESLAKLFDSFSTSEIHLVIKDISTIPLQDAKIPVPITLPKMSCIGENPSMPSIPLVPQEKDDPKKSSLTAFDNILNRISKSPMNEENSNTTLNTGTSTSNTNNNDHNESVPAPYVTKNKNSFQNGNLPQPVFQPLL
Assay: PBM E-score (8-mer binding enrichment) (E-score (-0.5 to 0.5)); higher = stronger / more preferred TF binding; most listed sequences are background and not binding sites
Details: protein concentration: 200 nM; construct: GST-full length
Method in brief: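 Universal all-10-mer Agilent arrays, double-stranded by primer extension on fresh or once-stripped slides, were probed with about 100-200 nM GST-tagged yeast transcription factors made by PURExpress. Fluorescent anti-GST detected bound protein, and masliner normalised the scans. E-scores from the Universal PBM Analysis Suite were given to each ungapped eight-base word pooled with its reverse complement.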

Sequence	PBM E-score
AGCCATTG	0.172
AGATCCAC	0.0604
AATGTGAC	0.0641
GAGCGGAA	0.0965
CACGAGGG	-0.139
AGGACTAA	0.054
CAACGGCC	-0.0818
AAGTGTAA	-0.173
ACTCACTG	0.265
AACAACAA	0.254
AAACGCGC	0.00387
CGTGTGCA	0.0256
CACCCGTC	0.0428
CAAGTGGG	-0.0449
AAATGACT	0.207
GCAGGTTA	-0.0603
TACTGCTA	-0.0244
ATCTGCTC	-0.111
AAACACAT	0.252
AGGGCCCT	-0.156
TGGAGCAA	0.0648
AGAATAGC	-0.00175
ATCCTCGG	0.021
AGTCGTAC	0.226
CCCAATAA	0.0108

Sequence	PBM E-score
ACGAGGGG	-0.0837
GCGTTGAC	0.00037
ATCAGACG	0.0204
ACTGCGGG	0.0914
GCTTATAC	-0.0258
AGAGAGTA	-0.088
TCTGGAAA	0.0756
CCCAGGTA	-0.0389
CCCCTCGA	0.0954
CAATGGGC	0.0284
CGTGGAGA	-0.0535
ACGATTCG	0.0532
GGCTTAAC	-0.0218
ATGAGCGG	-0.0573
GAGGCAAC	-0.172
AAGGGATG	-0.0979
CGCTGCTA	-0.127
TCCACCGA	0.127
ACGTCCAA	-0.158
GTTGGTAA	0.0661
AATAGCCA	0.0231
GTTGCAAA	-0.0878
AATTAATC	0.145
CTGCATGC	0.14
AGGGTCTC	-0.116

Sequence	PBM E-score
CTCCGCGC	0.104
GATCTCAC	0.0664
TCTCGTCA	-0.0493
ATCTATGC	0.0795
CCGACTAA	0.129
AAGATCAA	-0.09
GACACTAA	0.125
CGCGATAG	-0.014
AAACGCAC	0.142
GAGAACTC	0.0378
AACAGCCC	-0.148
ATCGTACG	0.129
AGTGCCTC	-0.241
AGATCGCT	-0.0841
ATTCAAAT	-0.112
CTCGCTAA	0.127
AGGCAAAT	-0.111
AAAAACAG	-0.171
TCGACCCA	0.166
ATGCATGC	-0.0419
AACGGAAC	-0.00826
AGCAATAA	-0.0386
GACTTGCA	0.00767
AGACACCA	0.137
ACCCCGCA	-0.0917

Sequence	PBM E-score
CCTGTTGA	-0.18
AGAGTACA	-0.17
AGTTGTAT	0.209
ATTACGGG	0.104
GAGCGTTA	-0.0236
ATTGGCAC	0.148
CTACGGAC	-0.121
GATACGGA	0.0144
TAAGATCA	0.0196
GCAAGCCA	0.0396
GAATATGC	-0.0476
AGAACTAT	0.0364
ACCCGAGC	0.0234
TGTATCAA	0.269
ATTCTCTG	-0.0449
GAGCTATA	-0.158
AGTTATCA	-0.161
CGCCTCCG	0.0324
ACAAACTG	-0.181
AGGCGAGG	0.0443
CGGGAAGA	0.177
ATGTTATC	0.105
AGTGCTGG	0.13
GCCAGACA	0.0199
GGTGTCAC	0.264

Sequence	PBM E-score
ATACCGGG	0.228
CTACTGAC	0.0908
CCCACCTC	-0.0129
GAGACAGC	0.0884
AGCTTACG	-0.105
CGAAGTCC	-0.153
ATATACGC	-0.0157
TGCCCGCA	0.0964
AATGCTGA	0.027
GCCGCTGA	0.034
GACCCTCA	-0.276
GTATAAGA	0.0885
CGCCTAAG	-0.192
ATCGTGCG	0.1
CGAACTGA	-0.0599
CGGAGACG	0.193
CGCCACTA	-0.0573
TCCACAGA	0.1
GAACTCCA	-0.13
GCAGATAA	-0.00576
AATTATGA	-0.00556
CCAAGTCG	0.00863
GAAGTTGA	0.0521
AAGGGTAT	0.0534
CGACCGAA	-0.0831

Sequence	PBM E-score
CAGAGAAG	0.0396
GGAATAGA	-0.0365
GCCCGTAA	0.0148
AGATCTAA	-0.0895
AGAGTGCG	0.119
AGAGGAAC	-0.0678
CTCCTCCA	0.0762
ATGAATAG	-0.0504
AGCGTTAG	-0.164
CCCTTAGG	-0.173
GTGAAAAA	-0.0605
CAATCGAC	-0.0834
ACGAGAGT	0.101
GTTATTTA	-0.175
AGCTTAGC	-0.175
AAAGCTGA	-0.151
AGGTTTCC	-0.136
AGGCTGAC	0.153
CCATAATC	0.237
ATGCCGTG	0.0498
AAGCTAGC	-0.233
ATGAACAG	-0.0314
CAGGCGTC	-0.084
ACTGACAG	0.0657
AACGCCAC	-0.091

Sequence	PBM E-score
CATGATTA	0.369
CAAAGACG	-0.157
ACTACCCG	0.0556
CTCATCGA	0.0686
AAAGCAGC	-0.146
GCCGCCGC	-0.0973
ATGCCGAC	0.147
ATGGGGAC	-0.00351
ACCTCTCA	-0.0635
CTACTAAC	0.167
ACACAGAT	-0.00225
CCCAGCGA	0.126
GGCCAACA	-0.0257
CAGCAATG	-0.0464
AGACGGTG	-0.246
CAAGACAG	0.0217
ACGAGTTC	0.0694
CTACCTTC	-0.128
CAATGCCC	-0.0915
CACCGATC	0.0664
AGGTGAAA	-0.0873
ACTCACAA	0.286
AATTCATG	0.214
CCACAAGG	0.0586
GCGGATCC	0.157

Sequence	PBM E-score
CCACTAGC	-0.152
CCATAGAG	-0.216
GCCGTTCA	-0.178
GAGACCTA	0.0908
ACCACAAT	0.174
GAACGCGC	0.0952
GCGACGAC	-0.114
AGAGTGGA	-0.0838
GCCTTCAA	-0.135
ATATCGCC	0.0318
AGTGCATG	-0.0471
AACACACT	0.205
CCTAGCGC	-0.166
CAACCGTC	-0.0573
ACTTTCAC	-0.0162
ATTATACC	0.112
TAGCCAAA	-0.0112
ATATTGCA	0.123
TGACCCAA	0.214
CTCTAGTC	-0.104
AATAGTAG	0.0438
AAAGTACG	0.105
GTCATACA	0.19
GTTTGATA	0.0594
CGCAATTA	-0.0437

Sequence	PBM E-score
ACAAAGCT	-0.0545
GGCCCTCA	-0.186
AGCCCTGG	-0.114
GCCACTAC	0.0783
ACACATTA	0.189
ACGCATAA	-0.0919
AAACTGGC	0.0109
ATCAGAAC	0.0119
AGGGGGTA	-0.139
AGCTGGCA	-0.00516
CCTTGCGA	-0.0209
GGCACGTA	-0.0165
AGTCGGAG	0.233
GCAACGGC	-0.0884
ATACGGGG	-0.0292
CTTTCGAC	-0.165
CTCATGAC	0.326
AGACGGCG	0.0504
CCAAGCAG	-0.0787
AGGCGTGG	-0.3
AACCAGTC	0.0251
AATCTGTG	0.0413
AACTAGCG	0.0205
ACACGTCA	0.175
ATTCCTCA	0.0353

Sequence	PBM E-score
CCGAAACA	0.104
CTTGACTA	0.131
AGCTGGAA	-0.133
AGTCTTTA	-0.341
AGTATCAT	0.182
CTCGCGAC	0.242
CCAAGACA	-0.0173
TACGGGCA	0.0459
ATAGATAG	0.11
ACGCACAT	0.0403
GGATCGTA	0.0854
GTCGGCTA	-0.0411
CTATCAGC	0.0442
CCATTGAA	-0.0169
ATTACGTG	0.204
CGCTTACG	-0.254
GGATCTAA	-0.203
ACACTCCA	0.0776
CTAACCCC	-0.231
GAGGGATA	-0.189
CGAAGCCA	-0.0788
AGGTACAA	-0.163
ATTCCGAC	0.156
AACCACAA	0.225
GCGCCTTA	0.0352

Sequence	PBM E-score
GTAACTAC	0.0678
AAATCTCT	-0.126
CGACAGAC	-0.00935
CGGAGGCA	-0.0597
ACGTTCCA	0.00922
ACGCAATC	0.0446
CCTGGACG	-0.0281
AACTAGGT	0.189
AGCAATTA	0.0218
AACTGAGG	-0.0666
GGTGAACA	-0.192
AATGACTG	0.271
CCACCCTC	0.246
CCCAGGAA	-0.116
ATGCCGAA	0.0852
GAAGACGA	0.0115
ACGTTGCA	-0.0853
ATTCGAAT	-0.074
CTTGGCTA	0.0867
AACCTGTA	-0.044
GACCCCGC	0.0882
ACTATTTG	0.0136
AGTGGACG	0.116
CGCTATTA	-0.0992
AGGTATCG	0.126

Sequence	PBM E-score
CTGGGGTC	0.0862
CAAAGGAA	-0.128
AAGTCTAT	-0.221
CATTTGGG	-0.0111
CTTAGGCA	-0.375
ACCGTCAC	-0.227
AAGAGGTA	0.0122
GACATCTC	0.0794
CGTTGTAG	0.182
AACGCTTA	-0.217
TATGCGAA	0.039
AGACTAAT	0.0912
ACCAGATA	0.16
CCCCACTC	0.128
AGCTGGCG	-0.00168
ACCTGCTC	-0.044
CATGTAAC	0.0748
TAGAGTGA	-0.0169
CGCACGTC	-0.0624
GCAATTCA	-0.181
GAGCCGTA	0.149
CACCAATA	0.0415
CAACTGGC	-0.2
CCTCCACC	-0.01
GAGATCGA	-0.0713

Sequence	PBM E-score
GCTGACCC	0.0256
ACGATCAA	-0.0543
ACGGAGCA	0.0773
ACTTTACT	-0.0267
AGTTATTC	-0.101
ATACAGTG	0.159
ACTTGGTA	0.0479
CTGGGGAC	-0.227
GGGGTACC	0.0141
AGTGGTTA	0.147
AGGGTAGG	-0.0156
CCATACGC	0.182
AAGCCTTA	-0.209
GTCGTGCA	0.141
AAAGACTG	-0.308
GCGGCGAA	-0.0346
TAGTAGAA	-0.199
ATTGTAGA	0.136
GGGCTTAA	-0.22
ATGGATCC	0.144
GATTCGAC	0.183
ATGGGGTA	0.0673
TCGGAAGA	-0.0282
GTACCAAA	0.11
GGGTTGTA	-0.0153

Sequence	PBM E-score
CGAGGACG	-0.0826
AACCTCAA	-0.195
CATATGCG	0.0901
GGCTCTTA	-0.0849
ATTTACCG	-0.0838
GTCCGGTA	0.0107
CGTATTTC	-0.271
GGTAGAGA	-0.075
AAATCGCG	-0.0259
CAATACCA	0.124
TCTACTAA	-0.0395
TGCGCGAA	0.0957
TCCATCGA	-0.0194
ATAACTAT	0.00668
GGCATGAC	0.0635
TACTAATA	0.0951
GCGCGCAC	0.122
CGGTGACG	-0.0241
CTCATCTC	0.0788
